Test results reported in the supplement of paper PMC11417369.
± gives the standard deviation of the averaged measurements. The list shows a part of the results.

Each sequence was assayed on PfAP2-G AP2 domain (GST-tagged) (assay: gcPBM binding intensity (ln(normalized median fluorescence intensity)); higher = stronger DNA binding).
Summary of the method: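 The highest Masliner-normalised natural-log median intensity across replicate spots of either probe orientation is reported as binding intensity. GST-tagged P. falciparum DNA-binding domains expressed in E. coli were applied for 1 h to an Agilent 4 × 180k array of primer-extended double-stranded 36-bp intergenic genomic probes plus negative controls, and bound protein was detected with Alexa488 anti-GST antibody and scanned at 488 nm.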

| Sequence | gcPBM binding intensity (ln) |
| --- | --- |
| AAGTGTAAAAGTTACACACACAAACTTGTCATTTTT [CACACA_site4614] | 9.99 ± 0.014 |
| CAAATTTTTTATTAAACACACAAACATATATATATA [CACACA_site5122] | 10.2 ± 0.57 |
| TTTCATCTCGTCATTTCTTATATAACTATTTTATAC [CACACA_negctrl_site813] | 10 ± 0.071 |
| ATTATTGTTTATTGATTTTTGTTAAAATAGGAAATT [GTGCAC_negctrl_site181] | 9.81 ± 0.099 |
| ATTATATTTATTAATATGTATATTTAATTATATTTA [XGTACX_negctrl_site376] | 9.65 ± 0.36 |
| AAAGGAGGGAATTTTTCTAGGTGTGGAGTGCTACTC [XGTACX_negctrl_site63] | 9.98 ± 0.2 |
| TATAAAAAATATATATATAATATTATATATATATAT [TGCATGCA_negctrl_site260] | 9.65 ± 0.4 |
| ATTTTTTTTTTTTTTTGTACGAATAATATGTATGAA [XGTACX_site5318] | 11.1 ± 0.75 |
| TTTTTTTTTTTTTGATGTACTAAAAAAAATGAGCCT [XGTACX_site8535] | 11.2 ± 0.95 |
| AATAAACATAAATACACACACAAAAAAAAAAACATA [CACACA_site4396] | 10.1 ± 0.33 |
| AAAAACAAAATATAATGTACACAATATATGTATATA [XGTACX_site2301] | 11.4 ± 0.57 |
| AAATATTACTACACTACATGCAGTTTTAGGTACACT [TGCATGCA_site42] | 11.2 ± 0.78 |
| TAATGTTTTTATATCACACACAAATATTAAATGATT [CACACA_site543] | 9.835 ± 0.035 |
| TTATTAGGTGTATAATGTACATATAATATATATATA [XGTACX_site3398] | 11 ± 0.44 |
| ATAGAAGCATCACACTGTACATGGATGAACAGAAAA [XGTACX_site7311] | 10.7 ± 0.3 |
| TATAATATAAGGATCACACACAAACAGACATATATA [CACACA_site557] | 10.23 ± 0.099 |
| TATAGGTAAATGGACACACACATATTTATATTTATA [CACACA_site7683] | 10.9 ± 0.58 |
| TGTAGTCTGGAGAAGAGTACATAGTATCTGGTAACA [XGTACX_site4944] | 11.3 ± 0.79 |
| ATAGTTCCTTTTAATACACACAAAAAAAAAAACATG [CACACA_site3415] | 10.4 ± 0.42 |
| GATATTAAAATATGTAGTACACATATTATATCATAT [XGTACX_site4167] | 11.5 ± 0.94 |
| TTAAAAATTATGGATACACACATATATATATATATT [CACACA_site2383] | 10.2 ± 0.2 |
| ATTAGCTACAAACAAAGGCTACCTATAGCAAGAGGG [GTGCAC_negctrl_site33] | 10.1 ± 0.25 |

| Sequence | gcPBM binding intensity (ln) |
| --- | --- |
| AATTTAATCCGTAATAAGAAAAGAAAAAAAAAAAGA [GTGCAC_negctrl_site129] | 9.84 ± 0.23 |
| TTTATTAAATAATCTCTTTTTATTACATAATAATAA [XGTACX_negctrl_site382] | 9.625 ± 0.021 |
| TTTACACTTTCCAATAGTACATATTAGAATAATTCT [XGTACX_site7734] | 10.9 ± 0.56 |
| GGATTATTTATAGGAGTGCATACATATATATATATA [GTGCAC_site9454] | 10.2 ± 0.4 |
| TAATTTATGGAATATGTGCACTTGCTGATCACTTTT [GTGCAC_site9843] | 10.3 ± 0.32 |
| TATATATATACATACATACACACATATATATATATA [CACACA_site4109] | 10 ± 0.31 |
| ATAATTTCTTTTACATGTACAAAATTTGCTTATATG [XGTACX_site5388] | 10.8 ± 0.44 |
| ATATATATAATGTGAAGTACATTTTGTTTACATATT [XGTACX_site8405] | 11.2 ± 0.86 |
| AATATCTAAATAAAGTGTACTTACCTTATTAATTAT [XGTACX_site2276] | 11.3 ± 0.94 |
| CCAATACATAGAAACTGTACATTATGCATTATACAC [XGTACX_site3531] | 10.9 ± 0.46 |
| TATATATATATATAATGTACGAATAGAAAAAAAAAA [XGTACX_site7231] | 11 ± 0.59 |
| CAAAATTTATATAATAGTACACATGATCTTTTTTCT [XGTACX_site8956] | 11.4 ± 0.73 |
| GATACAAAATGGGGAACACACACATATATATATATA [CACACA_site9278] | 10.5 ± 0.44 |
| AAATTAATAAATATTTTTATAAATTATAATATTAAT [GTGCAC_negctrl_site533] | 9.37 ± 0.16 |
| TATATATATATATATATATATATTAATATATATTAC [XGTACX_negctrl_site103] | 9.98 ± 0.65 |
| TATTTATAAATATAAACACACAACATTATATGCATA [CACACA_site5748] | 10.03 ± 0.064 |
| TAAAGGCAAACAAACACACACACATATATACCTATA [CACACA_site7078] | 9.985 ± 0.064 |
| ATAACAAAATAAAACACACACACAAATGTACCTATA [CACACA_site7190] | 11.1 ± 0.74 |
| AAAAGTGTATGTAGGTGTACTTTTTATTTCTTCTTT [XGTACX_site8819] | 11.6 ± 0.98 |
| AAATATTTATACCACACACACATACCTCTATTTGTA [CACACA_site6957] | 10.2 ± 0.11 |
| TACATATTTGTATATGCACACATAAATTTTTCCATT [CACACA_site9148] | 9.98 ± 0.042 |
| TATATTTATATATTAGTGCACTTTTTGTTAATTTTT | 10.3 ± 0.25 |

| Sequence | gcPBM binding intensity (ln) |
| --- | --- |
| TTTTTTTTTTTTTAATGTACCCATGGGCACATAGGT [XGTACX_site486] | 11.4 ± 1 |
| TAAATATAGGGTAATAGTACATAATTATATTCTTTT [XGTACX_site3883] | 10.7 ± 0.36 |
| AATGGATTAGCTAGCACACACAAAAAAAAAAAAAAA [CACACA_site3031] | 10 ± 0.45 |
| TTTACATAAACTGGTAGTACATAATATGGCTTAAAA [XGTACX_site5002] | 11.5 ± 0.86 |
| TTAGCAACTATTACTACACACATTTGTATTTAATTT [CACACA_site4961] | 9.945 ± 0.021 |
| TGGATTTTTTGATTTTTGTTTTTCTTCTTTCCCCCC [CACACA_negctrl_site1471] | 10.6 ± 0.81 |
| TGATTATAGACACGCGCACACACAACAAAAAAAAAA [CACACA_site9179] | 10.6 ± 0.48 |
| TAAGTTTGTGCAAGTGGTACATATATATAAATTTAT [XGTACX_site5944] | 11.3 ± 0.79 |
| ACAGTATAAAAATAAGCACACACACTAATATATATT [CACACA_site8212] | 10.1 ± 0.11 |
| TAAAATATATTTTTCTGTACACAAAAATATATTAAA [XGTACX_site2813] | 11.5 ± 0.96 |
| TATATATTAATATATGCATGTTAATATATTATGAAA [TGCATGCA_site61] | 9.62 ± 0.11 |
| AATGTAAAACGAAATGCACACTATGGAAAATATAAA [CACACA_site4559] | 10.21 ± 0.085 |
| TTATATATTTATAAATGTACGTATAAGAATTTAATT [XGTACX_site8541] | 11.5 ± 0.81 |
| CTATTAATGTACTCTACACACATATAAGAGGACATT [CACACA_site471] | 11.6 ± 0.86 |
| TAATAATAATTAAAATGAGATAAATAAATATATATA [TGCATGCA_negctrl_site322] | 9.55 |
| TCTTTATATCATCTTTCTAAATATATATATATATAA [CACACA_negctrl_site77] | 9.885 ± 0.021 |
| AAAAATAAAAATGAGTGTACTTTAAGCCCTACACTT [XGTACX_site828] | 11.3 ± 0.74 |
| TATAATATTATAGTTTGTACGAAAATAATATATTTA [XGTACX_site8673] | 11 ± 0.62 |
| ACGATGTTCATCACTACACACACAAAGAAATATATA [CACACA_site8859] | 10.1 ± 0.16 |
| AACCAAAATTTTTGTCGTACAAAAGAGCAAATGTAG [XGTACX_site6472] | 11.6 ± 0.81 |
| AATATTTTTTGTTTTACACACATATATAAATATATA [CACACA_site3602] | 9.93 ± 0.057 |
| TTATTTATATATTGCCCACACACATGTGATTATTTA [CACACA_site1715] | 10.4 ± 0.18 |

| Sequence | gcPBM binding intensity (ln) |
| --- | --- |
| ATAAACATGTATATATTAAAAAAAAAAAAAAAAAAT [CACACA_negctrl_site92] | 9.69 ± 0.22 |
| GAATTATATACTTATTGTACAAAAAAAAAAAAAAAA [XGTACX_site3193] | 10.7 ± 0.78 |
| TATTCCCCCCAACACACACACACACCGACATACCAC [CACACA_site8723] | 11.8 ± 1.1 |
| TGAACAGGTCATAATTTACACACTATATATTTTATT [CACACA_site8123] | 10.12 ± 0.092 |
| TACAGGAATATTTTTACACACTAAAAGTTATAAACT [CACACA_site6876] | 9.7 ± 0.11 |
| TTTTTCTTTTTTTGTTGTACATTTTGTAATATTTAC [XGTACX_site4102] | 11.1 ± 0.7 |
| TTTTTTAAATATATATGTACATATATCTATATATAT [XGTACX_site3461] | 11.2 ± 0.71 |
| TTTATAATTTATAGGCGGACAGGAAAATTTTATAAA [XGTACX_site6955] | 11.4 ± 0.83 |
| GCAAGGTCCACACTGGTGCATTAAAAATAAAATATA [GTGCAC_site9956] | 10.5 ± 0.62 |
| TTTTTAATTTTTTTCACACATATATAAATACAAATA [CACACA_site5530] | 9.97 ± 0.36 |
| AAATTACAAATAAAATGTACTCATGTTTTTATTATA [XGTACX_site7223] | 11.5 ± 0.83 |
| TATAATATATATGTATGTACGTATGTATGATTTTGT [XGTACX_site1164] | 11.5 ± 1 |
| AAGAAAAATTCTTCACGTACAAATAATTATATATAT [XGTACX_site7217] | 11.2 ± 0.83 |
| TATTACAAAAATGTGTTATTATATAAACGTATAGAG [XGTACX_negctrl_site529] | 10.09 ± 0.057 |
| AATATAATATAATGCACACATAAAAAAAAAAAAAAA [CACACA_site304] | 9.87 ± 0.45 |
| TTTCTTATATTATATAAATATATAGATGTTAATGGT [CACACA_negctrl_site706] | 9.905 ± 0.064 |
| AGTAAATATATTATATGTACGTATCATAAAATATAT [XGTACX_site1567] | 11.6 ± 0.86 |
| TTAATATTAAAATATAAACACACAAAATTCAATTAT [CACACA_site9262] | 9.92 ± 0.014 |
| ATTATATAATAATAAAGTACTAATATTTTTAAAAGA [XGTACX_site235] | 11 ± 0.56 |
| ATATATATATATATAGTGCAAATAAAAAATAGACAA [GTGCAC_site9796] | 10.3 ± 0.2 |
| TAATATATTAAAAGAAGTACATTTCTGATTTAATAG [XGTACX_site6403] | 11.3 ± 1 |
| GAACCGTTTTTATGTAGTACATATGTATATATATAT [XGTACX_site1577] | 11.6 ± 1.1 |
